According to patent publication US20200299675A1 (published 2020):

Key:
Assay in all cases: ELISA
Strep-m12 = target: Strep-m12
Strep-m1 = target: Strep-m1
Strep-m4 = target: Strep-m4
Strep-m16 = target: Strep-m16
Strep-m16, sequence (P22629 other isoform, or with tags, fused parts or gaps): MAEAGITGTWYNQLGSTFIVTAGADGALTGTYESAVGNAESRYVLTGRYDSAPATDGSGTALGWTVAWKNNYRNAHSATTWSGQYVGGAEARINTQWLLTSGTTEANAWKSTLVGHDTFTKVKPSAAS

Strep-m1, sequence (P22629 other isoform, or with tags, fused parts or gaps): as above
Strep-m4, sequence (P22629 other isoform, or with tags, fused parts or gaps): as above
Strep-m12, sequence (P22629 other isoform, or with tags, fused parts or gaps): as above

Kd (Strep-m12): 425 nM | Kd (Strep-m1): 150 nM | Kd (Strep-m4): 550 nM | Kd (Strep-m16): > 2000 nM
B1: Streptavidin (other)
chain: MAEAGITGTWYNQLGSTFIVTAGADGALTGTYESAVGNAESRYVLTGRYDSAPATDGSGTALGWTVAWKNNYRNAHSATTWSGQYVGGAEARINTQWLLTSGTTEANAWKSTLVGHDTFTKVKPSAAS
